Experimental data published in US20190241659A1 (AstraZeneca / MedImmune, published 2019).
Positions count from the first letter of the chain named. Names and notes keep the numbering of the source. Values joined by “and” are separate entries in the source; they are usually repeats but may differ in a detail not shown here. Identical values can stand only once. Values belong to the binder of their own block, whether it stands above or below them.

Columns and labels:
[1] = biological target: T1, human OX40 on the cell surface (OX40 transfected Jurkat NF-κB-Luc reporter cells; engineered CHO cells) (human, UniProt P43489 29-277); test: cell-based or functional assay
T1 sequence (looked up): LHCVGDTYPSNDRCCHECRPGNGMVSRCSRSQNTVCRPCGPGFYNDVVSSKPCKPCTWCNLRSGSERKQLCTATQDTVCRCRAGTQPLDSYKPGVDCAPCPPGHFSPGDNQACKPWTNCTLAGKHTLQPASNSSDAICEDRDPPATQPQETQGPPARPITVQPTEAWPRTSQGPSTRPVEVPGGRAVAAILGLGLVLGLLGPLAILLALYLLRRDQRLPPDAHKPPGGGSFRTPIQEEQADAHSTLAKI

[2] = biological target: T1, human OX40 on the cell surface (OX40 …); test: flow cytometry on engineered CHO cells; four-parameter sigmoidal fit, 50% receptor occupancy
[3] = biological target: T2, cynomolgus monkey OX40 on engineered CHO cells (cynomolgus monkey); test: as above
T2 chain: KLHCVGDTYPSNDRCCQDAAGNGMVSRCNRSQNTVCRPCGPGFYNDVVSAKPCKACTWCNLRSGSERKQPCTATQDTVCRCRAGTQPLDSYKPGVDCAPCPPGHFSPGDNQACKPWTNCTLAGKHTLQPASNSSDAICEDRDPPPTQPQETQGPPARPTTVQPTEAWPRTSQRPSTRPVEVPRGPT

[4] = biological target: T3, cynomolgus monkey PD-L1 on engineered CHO cells (cynomolgus monkey, UniProt G7PSE7 19-290); test: flow cytometry on engineered CHO cells; four-parameter sigmoidal fit, 50% occupancy
T3 construct: whole, on cells

[5] = biological target: cynomolgus monkey OX40 and cynomolgus monkey PD-L1 expressed together on engineered CHO cells (cynomolgus monkey, UniProt G7PSE7 19-290); test: flow cytometry on CHO cyno PD-L1/OX40 cells, AlexaFluor 647 goat anti-human IgG secondary, MFI
[6] = biological target: activated human T cells (CD4+ T cells, CD8+ T cells) (human); test: cell-based or functional assay

EC50, NF-κB luciferase in human OX40-expressing Jurkat T cells with CD32A-expressing HEK293 cells [1]: 0.052 nM
EC50, NF-κB luciferase in human OX40-expressing Jurkat T cells with PD-L1 expressing MDA-MB231 cells [1]: 0.018 nM
EC50 [2]: 0.18 nM
EC50 [3]: 0.056 nM
EC50 [4]: 0.11 nM
B1: MEDI5615 (PD-L1/OX40L BFP2 bispecific molecule, IgG4P) (other)
chain: QVSHRYPRIQSIKVQFTEYKKEKGFILTSQKEDEIMKVQNNSVIINCDGFYLISLKGYFSQEVNISLHYQKDEEPLFQLKKVRSVNSLMVASLTYKDKVYLNVTTDNTSLDDFHVNGGELILIHQNPGEFCVLGGGGSGGGGSQVSHRYPRIQSIKVQFTEYKKEKGFILTSQKEDEIMKVQNNSVIINCDGFYLISLKGYFSQEVNISLHYQKDEEPLFQLKKVRSVNSLMVASLTYKDKVYLNVTTDNTSLDDFHVNGGELILIHQNPGEFCVLGGGGSGGGGSQVSHRYPRIQSIKVQFTEYKKEKGFILTSQKEDEIMKVQNNSVIINCDGFYLISLKGYFSQEVNISLHYQKDEEPLFQLKKVRSVNSLMVASLTYKDKVYLNVTTDNTSLDDFHVNGGELILIHQNPGEFCVLGGGGSGGGGSGGGGS[letters of human IgG4 Fc with S228P (EU numbers) not shown]GGGGSGGGGSEIVLTQSPGTLSLSPGERATLSCRASQRVSSSYLAWYQQKPGQAPRLLIYDASSRATGIPDRFSGSGSGTDFTLTISRLEPEDFAVYYCQQYGSLPWTFGCGTKVEIKGGGGSGGGGSGGGGSGGGGSEVQLVESGGGLVQPGGSLRLSCAASGFTFSRYWMSWVRQAPGKCLEWVANIKQDGSEKYYVDSVKGRFTISRDNAKNSLYLQMNSLRAEDTAVYYCAREGGWFGELAFDYWGQGTLVTVSS

EC50 (read off the curve) [5]: ~0.06 nM
B2: PD-L1 F180A OX40L BFP2 (other)
chain: B1 chain with F130A, F273A, F416A

EC50 (read off the curve) [6]: ~0.1 nM and ~0.3 nM
B3: Anti-PD1-OX40L FP BFP3 (wild type OX40L) (other)
heavy: EVQLVESGGGLVQPGGSLRLSCAASGFTFSDYGMHWVRQAPGKGLEWVAYISSGSYTIYSADSVKGRFTISRDNAKNSLYLQMNSLRAEDTAVYYCARRAPNSFYEYYFDYWGQGTTVTVSSASTKGPSVFPLAPCSRSTSESTAALGCLVKDYFPEPVTVSWNSGALTSGVHTFPAVLQSSGLYSLSSVVTVPSSSLGTKTYTCNVDHKPSNTKVDKRV[letters of human IgG4 Fc with S228P (EU numbers) not shown]GGGGSGGGGSGGGGSQVSHRYPRIQSIKVQFTEYKKEKGFILTSQKEDEIMKVQNNSVIINCDGFYLISLKGYFSQEVNISLHYQKDEEPLFQLKKVRSVNSLMVASLTYKDKVYLNVTTDNTSLDDFHVNGGELILIHQNPGEFCVLGGGGSGGGGSQVSHRYPRIQSIKVQFTEYKKEKGFILTSQKEDEIMKVQNNSVIINCDGFYLISLKGYFSQEVNISLHYQKDEEPLFQLKKVRSVNSLMVASLTYKDKVYLNVTTDNTSLDDFHVNGGELILIHQNPGEFCVLGGGGSGGGGSQVSHRYPRIQSIKVQFTEYKKEKGFILTSQKEDEIMKVQNNSVIINCDGFYLISLKGYFSQEVNISLHYQKDEEPLFQLKKVRSVNSLMVASLTYKDKVYLNVTTDNTSLDDFHVNGGELILIHQNPGEFCVL
light: QIVLTQSPATLSLSPGERATLSCSASSKHTNLYWSRHMYWYQQKPGQAPRLLIYLTSNRATGIPARFSGSGSGTDFTLTISSLEPEDFAVYYCQQWSSNPFTFGQGTKLEIKRTVAAPSVFIFPPSDEQLKSGTASVVCLLNNFYPREAKVQWKVDNALQSGNSQESVTEQDSKDSTYSLSSTLTLSKADYEKHKVYACEVTHQGLSSPVTKSFNRGEC
